The assay relates to 494315-158-R-J1-PDC complex spheroid growth, percent test/control. The assay can be described thus: Anticancer human tumor 494315-158-R-J1-PDC patient-derived soft tissue sarcoma cell line growth inhibition [Asc]. The following applies: for viability, T/C: stronger effect = lower value. Here is the method: Multicellular complex tumor spheroid response to apoptosis pathway targeting inhibitors Alrizomadlin, Pelcitoclax, and Dasminapant in combination with a variety of drugs and investigational agents in selected tumor cell lines
The MDM2 inhibitor alrizomadlin, the Bcl-2/Bcl-xL inhibitor pelcitoclax, and the IAPs inhibitor dasminapant were evaluated both individually and in combination with standard of care and investigational anticancer small molecules within a complex spheroid model of solid tumors. . Complex spheroids include a stromal component modeled by human endothelial cells (HUVEC) and fibroblasts modeled by human mesenchymal stem cells (MSCs). The concentration ranges selected for each drug and investigational agent were based upon clinically achievable concentrations if the clinical Cmax of the agent was known.
Compounds. The drugs and investigational agents: alrizomadlin (APG-115; NSC831270), pelcitoclax (APG-1252; NSC835773), dasminapant (APG-1387;NSC834197), TAK-243 (NSC785004), copanlisib (NSC809693), olaparib (NSC753686), talazoparib (NSC767125), cobimetinib (NSC 768068), eltanexor (KPT-8602, NSC 794443), abemaciclib (NSC 768073), sotorasib (NSC818433), adagrasib (NSC 831453), MRTX-1133 (NSC 836407), Iadademestat (ORY1001, NSC 806812), and RMC-4630 (NSC839698), were obtained from the NCI Developmental Therapeutics Program Chemical Repository. The FDA-approved anticancer drug set is available from the Developmental Therapeutics Program at https://dtp.cancer.gov/organization/dscb/obtaining/available plates.htm. […] The stock solutions were prepared in dimethyl sulfoxide (DMSO, Sigma-Aldrich, St. Louis, MO, cat. D2650) at 800-fold the tested concentration and stored at -70 degrees C prior to their use. All drugs and investigational agents were tested over a range starting from a high concentration at or near the clinical Cmax and decreasing in half-log increments. If the clinical Cmax for an agent had not been determined, the highest concentration tested was 10 microM.
The patient-derived cancer (PDC) cell lines include five colon adenocarcinomas: 186277-243-T-J2-PDC, 616215-338-R-J1-PDC, 439559-082-T-J2-PDC, 463943-066-T-J2-PDC, and 519858-162-T-J1-PDC; three pancreatic carcinomas: 323965-272-R-J2-PDC, 521955-158-R6-J3-PDC, and 521955-158-R2-J5-PDC; two uterine sarcomas: 327498-152-R-J2-PDC and 993429-296-R-J1-PDC; two rhabdomyosarcomas: 755483-174-R-J1-PDC and 772245-204-R-J1-PDC; two soft tissue sarcomas: 126254-015-R-J1-PDC and 494315-158-R-J1-PDC; two malignant fibrous histiocytomas: 317291-083-R-J1-PDC and 596521-263-R-J1-PDC; two breast carcinomas: 171881-019-R-J1-PDC and 885512-296-R-J2-PDC; and one ovarian carcinoma: 6556581-035-R-J-PDC were obtained from the NCI PDMR, (https://pdmr.cancer.gov). The established cell lines HSSY-2 synovial sarcoma (RRID:CVCL 8719), SYO-1 synovial sarcoma (RRID:CVCL_7146), MPNST malignant peripheral neural sheath tumor were obtained from the Sloan Kettering Institute. The following established cell lines were purchased from the American Type Culture Collection (ATCC, Manassas, VA), Sor the received from the NCI repository:, PANC-1 pancreatic carcinoma (CRL-1469, RRID:CVCL_0480), OVCAR-5 ovarian carcinoma (RRID:CVCL_1628), OVCAR-8 ovarian carcinoma (RRID:CVCL_1629), , MCF-7 breast carcinoma (CRL-12584, RRID:CVCL_0031), MDA-MB-231 breast carcinoma (CRL-12532, RRID:CVCL_0062), NCI-H1876 small cell lung carcinoma (CRL-5902, RRID:CVCL_1503), NCI-H510A small cell lung carcinoma (HTB-184, RRID:CVCL_1565), NCI-H1417 (CRL-5869, RRID:CVCL_1469), and NCI-H196 small cell lung carcinoma (CRL-5823, RRID:CVCL_1509). Dr. Peter Houghton (Greehey Children's Cancer Research Institute, University of Texas Health Science Center, San Antonio, TX) provided Rh-18 rhabdomyosarcoma (RRID:CVCL_1659). Pooled donor human umbilical vein endothelial cells (HUVEC, Lonza, cat. CC-2519) and human mesenchymal stem cells (hMSC, Lonza, cat. PT-2501) were purchased from Lonza (Walkersville, MD).
Cell Culture. […]

Some entries of the source have several records that differ or are many. This is not the full list of results. An entry can have further records. The values listed for one entry repeat one measurement across runs, samples, wells, individuals or studies. Dates in brackets are months of testing. Counts like (3×) say how often a value occurs here.
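Note: compound exposure lasted seven days after spheroids formed for three days.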

In the case of `CCN1C(C(=O)NC23CCC(C(=O)O)(CC2)CC3)C(c2cccc(Cl)c2F)C2(C(=O)Nc3cc(Cl)ccc32)C12CCCCC2` (stereo unspecified), the viability, T/C – broadly, the ratio of treated to control – (compound alone 0.03 µM) was 96.1, 102, 91.6, 105, 106 (2×), 91.5, 118, 101, 92.7, 85.8, 91.7, 84.7, 89.1% [2022-09] and 104% [2022-10]; the viability, T/C (compound alone 0.0949 µM) was 93, 94.8, 94.3, 112, 109, 93.5, 98.9, 91.6, 94.2, 94.7, 92.7, 84.9, 84.8, 95% [2022-09] and 98.5% [2022-10]; the viability, T/C (compound alone 0.3 µM) is 106, 88.2, 114, 109, 103, 96.2, 98.2, 108, 89.2, 102, 91, 96.5, 101, 80.1% [2022-09] and 102% [2022-10]; the viability, T/C (compound alone 0.949 µM) was 101, 80.5, 98.3, 102, 118, 99.9, 95.5, 91.2, 85.9, 100, 82.8, 92.9, 90.3, 81.4% [2022-09] and 112% [2022-10]; the viability, T/C (compound alone 3 µM) is 88.2, 106, 87.7, 86.5, 91.4, 100, 87.8, 87.2, 90.1, 85.9, 82.8, 87.5, 80, 78.3% [2022-09] and 101% [2022-10].
Take `CNC(C)C(=O)NC1CN(S(=O)(=O)c2cccc(S(=O)(=O)N3CCC4CCC(C(=O)NC(c5ccccc5)c5ccccc5)N4C(=O)C(NC(=O)C(C)NC)C3)c2)CCC2CCC(C(=O)NC(c3ccccc3)c3ccccc3)N2C1=O` (stereo unspecified): the IC50 (as a rule, the midpoint of a concentration-inhibition curve) (compound alone, run of 10/03/2022) was 118, 92.4, 335, 121, 158, 75.8, 145, 264, 148, 168, 138, 92.9 nM.

These data come from PubChem BioAssay AID1963420 (Molecular Pharmacology Branch, DTP, NCI, 2024).
